The other results are listed elsewhere or left out. Antibody binding of pooled human sera (four to six donors per pool; dilution not stated) to peptides of the Trypanosoma cruzi antigen TSSA on microarrays. Quantile-normalised fluorescence in arbitrary units, mean of duplicate arrays; higher = more binding. No active / inactive call. The uninfected pools are read here as the healthy donors of the same country. The strongest signals lie near the top of the scale (about 60,000).

In one assay the test system is pooled sera of uninfected people, Bolivia. In words: antibody binding signal (normalised fluorescence) (arbitrary fluorescence units); higher = stronger serum antibody binding to peptide. Here is the method:
(§1)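 Microarray of 15-residue peptides over residues 30-55 of Trypanosoma cruzi TSSAII, each with 1 to 10 substitutions at naturally variable positions, probed with one serum pool per country.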
On to GTEKKAATGGAPSPS, for which the antibody binding signal stood at 919.

In turn, TDNKAAAGEAPSPSG gave an antibody binding signal of 309.

For the sequence GTEKKAATGGTPSPP, the antibody binding signal was found to be 591.

Turning to EKKAAAGETPSPSGA, the antibody binding signal was 1160.

As to PPSGKDKKTATGETP, the antibody binding signal was determined as 377.

For STPPSGTENKTAAGE, the antibody binding signal is 339.

Take STPPSGKDNKAATGG: the antibody binding signal is 496.

On to KDNKTATGGTPSPSG, for which the antibody binding signal was 149.

In the case of SGKENKPAAGGAPSP, the antibody binding signal was 3030.

In the case of PPSGKDKKTATGGAP, the antibody binding signal is 320.

In turn, TPPSGKENKTAAGET yielded an antibody binding signal of 1360.

DKKPAAGETPSQSGA displayed an antibody binding signal of 251.

As for GTDNKAATGETPSQP, the antibody binding signal was determined as 630.

Consider KKPAAGETPSQPGAS, for which the antibody binding signal stood at 549.

PPSGTDKKPAAGEAP: the antibody binding signal was found to be 541.

Sequence KEKKPATGETPSQSG returned an antibody binding signal of 162.

Turning to ENKPAAGGAPSQPGA, the antibody binding signal came to 336.

GKEKKAAAGEAPSPS displayed an antibody binding signal of 94.5.

In turn, KENKPATGGAPSPPG returned an antibody binding signal of 848.

On to SGKDNKAAAGGTPSQ, for which the antibody binding signal was 237.

With TENKAAAGGTPSQPG, the antibody binding signal turned out to be 141.

Turning to GKDKKTATGGAPSQS, the antibody binding signal was found to be 85.2.

Regarding ENKAAAGGTPSPSGA, the antibody binding signal was determined as 209.

Turning to EKKTAAGGAPSQPGA, the antibody binding signal is 791.

The sequence SGTEKKAATGETPSP had an antibody binding signal of 438.

DKKPAAGGAPSPSGA displayed an antibody binding signal of 172.

Sequence ENKAAAGGAPSPPGA showed an antibody binding signal of 168.

On to KDNKAAAGGTPSPSG, for which the antibody binding signal stood at 1320.

With PSGKENKAATGEAPS, the antibody binding signal is 3690.

For TPPSGTENKPATGET, the antibody binding signal was found to be 1080.

Consider KKPAAGGAPSQSGAS, for which the antibody binding signal came to 107.

For STPPSGKEKKAATGG, the antibody binding signal came out at 241.

GKDKKPATGEAPSQP showed an antibody binding signal of 318.

As for STPPSGTDKKPATGG, the antibody binding signal was found to be 1100.

For DKKAAAGGTPSQSGA, the antibody binding signal is 148.

Regarding GKENKAATGGAPSPP, the antibody binding signal was determined as 218.

PPSGTDNKPATGETP showed an antibody binding signal of 532.

As for KDKKTATGETPSPPG, the antibody binding signal was 136.

As for TDKKTATGGAPSQPG, the antibody binding signal was 188.

Sequence NKPAAGGTPSPSGAS registered an antibody binding signal of 1120.

The next assay relates to pooled sera of uninfected people, Brazil. The assay is described as above. Here is the method:
as §1
GTEKKAATGGAPSPS: the antibody binding signal was determined as 136.

Consider TDNKAAAGEAPSPSG, for which the antibody binding signal was found to be 126.

The sequence GTEKKAATGGTPSPP returned an antibody binding signal of 585.

EKKAAAGETPSPSGA came in with an antibody binding signal of 114.

Regarding PPSGKDKKTATGETP, the antibody binding signal was found to be 113.

Turning to STPPSGTENKTAAGE, the antibody binding signal is 272.

As for STPPSGKDNKAATGG, the antibody binding signal worked out at 136.

In the case of KDNKTATGGTPSPSG, the antibody binding signal came out at 188.

For SGKENKPAAGGAPSP, the antibody binding signal stood at 287.

Take PPSGKDKKTATGGAP: the antibody binding signal is 96.3.

In turn, TPPSGKENKTAAGET gave an antibody binding signal of 243.

In the case of DKKPAAGETPSQSGA, the antibody binding signal came to 226.

Turning to GTDNKAATGETPSQP, the antibody binding signal turned out to be 1600.

For the sequence KKPAAGETPSQPGAS, the antibody binding signal was determined as 89.6.

The sequence PPSGTDKKPAAGEAP showed an antibody binding signal of 634.

In turn, KEKKPATGETPSQSG yielded an antibody binding signal of 140.

On to ENKPAAGGAPSQPGA, for which the antibody binding signal came to 304.

On to GKEKKAAAGEAPSPS, for which the antibody binding signal was 112.

Sequence KENKPATGGAPSPPG came in with an antibody binding signal of 132.

For SGKDNKAAAGGTPSQ, the antibody binding signal is 347.

In turn, TENKAAAGGTPSQPG yielded an antibody binding signal of 1480.

In turn, GKDKKTATGGAPSQS showed an antibody binding signal of 101.

The sequence ENKAAAGGTPSPSGA registered an antibody binding signal of 2260.

For EKKTAAGGAPSQPGA, the antibody binding signal was determined as 163.

SGTEKKAATGETPSP showed an antibody binding signal of 279.

Consider DKKPAAGGAPSPSGA, for which the antibody binding signal is 272.

Turning to ENKAAAGGAPSPPGA, the antibody binding signal worked out at 197.

As to KDNKAAAGGTPSPSG, the antibody binding signal was determined as 416.

As for PSGKENKAATGEAPS, the antibody binding signal amounted to 267.

In the case of TPPSGTENKPATGET, the antibody binding signal came to 484.

In the case of KKPAAGGAPSQSGAS, the antibody binding signal came out at 139.

STPPSGKEKKAATGG showed an antibody binding signal of 112.

Regarding GKDKKPATGEAPSQP, the antibody binding signal amounted to 151.

Sequence STPPSGTDKKPATGG gave an antibody binding signal of 326.

For DKKAAAGGTPSQSGA, the antibody binding signal was 2560.

On to GKENKAATGGAPSPP, for which the antibody binding signal was 124.

PPSGTDNKPATGETP: the antibody binding signal amounted to 481.

For the sequence KDKKTATGETPSPPG, the antibody binding signal came out at 123.

Consider TDKKTATGGAPSQPG, for which the antibody binding signal is 172.

In turn, NKPAAGGTPSPSGAS registered an antibody binding signal of 1660.

In a further assay the test system is pooled sera of uninfected people, Colombia. Described as above. Here is the method: as §1
For GTEKKAATGGAPSPS, the antibody binding signal turned out to be 656.

Sequence TDNKAAAGEAPSPSG gave an antibody binding signal of 90.7.

GTEKKAATGGTPSPP returned an antibody binding signal of 1210.

The sequence EKKAAAGETPSPSGA yielded an antibody binding signal of 145.

PPSGKDKKTATGETP came in with an antibody binding signal of 255.

In turn, STPPSGTENKTAAGE came in with an antibody binding signal of 399.

STPPSGKDNKAATGG yielded an antibody binding signal of 154.

Turning to KDNKTATGGTPSPSG, the antibody binding signal came to 264.

Take SGKENKPAAGGAPSP: the antibody binding signal stood at 229.

For the sequence PPSGKDKKTATGGAP, the antibody binding signal is 271.

As for TPPSGKENKTAAGET, the antibody binding signal worked out at 779.

As to DKKPAAGETPSQSGA, the antibody binding signal amounted to 713.

GTDNKAATGETPSQP showed an antibody binding signal of 135.

With KKPAAGETPSQPGAS, the antibody binding signal is 185.

For the sequence PPSGTDKKPAAGEAP, the antibody binding signal amounted to 652.

Take KEKKPATGETPSQSG: the antibody binding signal was 126.

With ENKPAAGGAPSQPGA, the antibody binding signal is 245.

GKEKKAAAGEAPSPS came in with an antibody binding signal of 76.8.

In turn, KENKPATGGAPSPPG showed an antibody binding signal of 118.

SGKDNKAAAGGTPSQ returned an antibody binding signal of 581.

Regarding TENKAAAGGTPSQPG, the antibody binding signal was determined as 385.

Consider GKDKKTATGGAPSQS, for which the antibody binding signal was 76.1.

ENKAAAGGTPSPSGA: the antibody binding signal is 478.

Turning to EKKTAAGGAPSQPGA, the antibody binding signal amounted to 264.

Turning to SGTEKKAATGETPSP, the antibody binding signal is 577.

For DKKPAAGGAPSPSGA, the antibody binding signal worked out at 125.

On to ENKAAAGGAPSPPGA, for which the antibody binding signal was determined as 265.

KDNKAAAGGTPSPSG yielded an antibody binding signal of 201.

Sequence PSGKENKAATGEAPS registered an antibody binding signal of 841.

In turn, TPPSGTENKPATGET had an antibody binding signal of 471.

In the case of KKPAAGGAPSQSGAS, the antibody binding signal worked out at 79.1.

STPPSGKEKKAATGG showed an antibody binding signal of 309.

With GKDKKPATGEAPSQP, the antibody binding signal amounted to 178.

In turn, STPPSGTDKKPATGG showed an antibody binding signal of 326.

DKKAAAGGTPSQSGA yielded an antibody binding signal of 150.

GKENKAATGGAPSPP returned an antibody binding signal of 171.

PPSGTDNKPATGETP displayed an antibody binding signal of 381.

With KDKKTATGETPSPPG, the antibody binding signal stood at 107.

Turning to TDKKTATGGAPSQPG, the antibody binding signal came out at 101.

Turning to NKPAAGGTPSPSGAS, the antibody binding signal worked out at 784.

Values taken from the supplement of paper PMC10441789.
